Measurements: the RNAGym collection of RNA variant scans (doi:10.1073/pnas.2313332121)
Variants at the floor of the assay are shown more often than the library holds them.

B1: TPR 5TU (parent)
chain: GGAUCUUCUCGAUCUAACAAAAAAGACAAAUCUGCCACAAAGCUUGAGAGCAUCUUCGGAUGCAGAGGCGGCAGCCUUCGGUGGCGCGAUAGCGCCAACGUUCUCAACUAUGACACGCAAAACGCGUGCUCCGUUGAAUGGAGUUUAUCAUG

Variants of: B1
Test: polymerase ribozyme fitness, log enrichment relative to wild type (log ratio); higher = more active; in vitro selection for triplet polymerase activity
How it was run: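 Libraries of mutants in each subunit of a heterodimeric triplet polymerase ribozyme were generated by PCR and transcribed. In triplicate, each went through one in vitro selection round: annealing with biotinylated primer, partner subunit and triplets; frozen incubation at −7 °C; gel excision of extended constructs; streptavidin-bead capture; RT-PCR. Fitness, taken from Illumina sequencing of input and output libraries, is the logarithm of a genotype's enrichment over wild-type enrichment, averaged across replicates with inverse-variance weights. The logarithm is base 2, and genotypes needed ≥10 input reads and ≥1 read per output to be kept.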

Variant | polymerase ribozyme fitness (log ratio)
A22C A47C C79U U82A | ≤ -4.2
A21U C54U U146A | -0.081
A22C A28C | ≤ -4.2
A21C C63A U77G | ≤ -4.2
A21C C32U A60C C96A | ≤ -4.2
A21U G141U | 1.9
A20G C87A U144A | ≤ -4.2
A20U U44A G62A C87G G140A | ≤ -4.2
A21U C43U | ≤ -4.2
A20G C63A G74A C93A | ≤ -4.2
A21U A24U U44A U53G U78G A97U A137C G141C | ≤ -4.2
A21C A28U G59C U82C C96U G112A | ≤ -4.2
A21U C27A G58U G88U A142C | ≤ -4.2
A21G U31A C95A | 0.669
A20U U56A A73G G94A U101A | -2.45
A21U G65U | ≤ -4.2
A21U A28C U53A G88C | ≤ -4.2
A20G A23U G58C C87G A119U | ≤ -4.2
A20G G46C A52G C87G G140U | ≤ -4.2
A20U A60G G67A U78C C93U C95G G124A U148C | ≤ -4.2
A20G U53A C76A G86U G88A | ≤ -4.2
A21C A29C C75G | ≤ -4.2
A22C A24G A28C C51A G65A C87A C129G C131U | ≤ -4.2
A21G G25U C85U C99U U134A | ≤ -4.2

Variant | polymerase ribozyme fitness (log ratio)
A21C G25U C96A A97G | -3.82
A20G C27G G67C U78G A89U C93G G124A U151G | ≤ -4.2
A20G A26U G50C A52U U55C | ≤ -4.2
A21C A30G A39U C93A U127C | ≤ -4.2
A21C G67C G86C A98U C129U A137G A138C | ≤ -4.2
A22C A29U U33C A47C U53G C95U C105A C118U | ≤ -4.2
A20U G46C G62U C75G G92A G140C | ≤ -4.2
A20U U56A G58C G88A G124C | ≤ -4.2
A20C U53A C57G G86U G133U U146C | ≤ -4.2
A20U U56A | -1.87
A21C G50C G62A A91C | ≤ -4.2
A20G C69U G84C G126C G136A | -1.72
A20G A73G G84A G141A U148A | ≤ -4.2
A20C U53A G62C G86U | ≤ -4.2
A21C C35A A39C G100C G136U | ≤ -4.2
A20U A26U C63A U102A U109C | ≤ -4.2
A21C U53A U55A G59C G84C U111C | ≤ -4.2
A21G G81C C87G G92A | ≤ -4.2
A20U A47U C54U U56A A66G A73U G92U G100A U145C A147C | ≤ -4.2
A20U A28G G50C C57U G80A C96U A97C G128C A137C | ≤ -4.2
A20G C35G A89U A97C G143C | ≤ -4.2
A21G G65C C85U | ≤ -4.2
A21G C85U C96U C105U A106C A138G | ≤ -4.2
A20G C32U C54G G126A U127G | ≤ -4.2

Variant | polymerase ribozyme fitness (log ratio)
A20U A41U U55A A66U G84A C116A | ≤ -4.2
A20U A73G C79A C96G | ≤ -4.2
A21U U44G C85G C93G A97C | ≤ -4.2
A21C A23G A47C G88A G124U U151G | ≤ -4.2
A21U C35A A52G A60U A91C | ≤ -4.2
A20C U78A C103G C105G | ≤ -4.2
A21G C35U A66U G67A A91U | ≤ -4.2
A21G A29G U53A C76A | ≤ -4.2
A21G A26U U56C A113G | ≤ -4.2
A21U A30U G94A C95A G141C U146A A150U | ≤ -4.2
A21U A60U C103G C108U A142G U148C | ≤ -4.2
A20U U53A A120G | -2.23
A21C A40C G48A C85A G94C | -2.1
A21U A24C C79U G80C C85U C93U | ≤ -4.2
A21U C35U A49C U134A | ≤ -4.2
A21U A66G A107U A113C | ≤ -4.2
A21C G34C A39U U55A C95G U104A A119G U144G U146A | ≤ -4.2
A20U G92A A121U G141C | -4.03
A21U G34A C69A C132G | ≤ -4.2
A20G A30U C95G C108A G140A G141C | ≤ -4.2
A21G G46U | 0.452
A21C A29G U44G C63U G68U C103U A137G G143U | ≤ -4.2
A20U G25C A49G G50A C95U C108G C131U G140U A150U | ≤ -4.2
A21C C36U U56A C76A C93A G141C | ≤ -4.2

Variant | polymerase ribozyme fitness (log ratio)
A21U G48A U55A C75U G83C A89G A98U C105U G117A U144C | ≤ -4.2
A20U A26C G50U C54A C87G C105A G140U | ≤ -4.2
A20U U90A C123A | ≤ -4.2
A21U C69U C96A C129A U135A G143U | -0.753
A21U G50U | 0.281
A21U C32G G50A G83A G136A | ≤ -4.2
A20G A30U C35U C51U | ≤ -4.2
A20G U102G A107U C116U A142U | ≤ -4.2
A22C A30G A37G C38A C69A C95U A98U A120U | ≤ -4.2
A21U G83U G84U G117U U151G | ≤ -4.2
A20G A107U C125U U151G | ≤ -4.2
A21G C35A U61A U78C G84A C87G G140U | ≤ -4.2
A21C C35U G68A G71C A91U C149A U151G | ≤ -4.2
A21U A60G U78A U148C | ≤ -4.2
A21C G25C U53A | -3.09
A22C A28C G83A G141A A147C | ≤ -4.2
A21U A39G G92A | ≤ -4.2
A20G G71U A89G U144G U145G | ≤ -4.2
A21U A41G C95A C96A | -0.65
A21U A24C U31G A49C C51U U56A G84A G88C A89G A119G G124U | ≤ -4.2
A20U C35U G59C C75U C87U C99U A137U A138U | ≤ -4.2
A21G A26U A29C A52G C57U G88C G92A A110U | ≤ -4.2
A20U A22C G68C U77A U82G C93U U139C | ≤ -4.2
A21G A91C | ≤ -4.2

Variant | polymerase ribozyme fitness (log ratio)
A21C G25A | -2.85
A20C U77C C95G A97C A98C A113U A119U A147G C149G | ≤ -4.2
A21C A26C G71C C76G C87A C108U | ≤ -4.2
A21C G50C A60C A64U A66G G83A | ≤ -4.2
A21C C43U C79G G83U C87G A91G A119U G141A | ≤ -4.2
A20U U55A G74A G84A G117U A120U | ≤ -4.2
A20U G74A A137U | ≤ -4.2
A20U U53A C87U A89C G92C A147C | ≤ -4.2
A21C G50A U102A | -1.21
A20G C43U G62U A91G | ≤ -4.2
A21G C38U | 0.63
A21C A41C A115G | -1.51
A21G U33G U102G G128A G133U | ≤ -4.2
A21C A24U C38G C93U G117A | -2.15
A20U A47G A66C G74A A89G C93A | ≤ -4.2
A20U C57U A66U C95A U102C G141A U145G | ≤ -4.2
A21C A24G A39G C54U U78G G94A C129G U134G G140U U145G | ≤ -4.2
A21U G59C G126U | 0.721
A20G C35A G50A G62U C96A | ≤ -4.2
A20U G81U A98G A138C | ≤ -4.2
A20U C27G G46U G92U A138C G143U | ≤ -4.2
A21G G42C C63U A89U C99A A106G A138C | ≤ -4.2
A20G U45A G50A C87U G94A | ≤ -4.2
A21G A41C G46A G65U | ≤ -4.2

Variant | polymerase ribozyme fitness (log ratio)
A20U A22U C54A G80A U90G A113U C123G U135A | ≤ -4.2
A21G C27U C57G C72A C93G | ≤ -4.2
A21U G58A G59C G62A G88C C118G C123G U139A | ≤ -4.2
A20U C54A A106C | -3.99
A22C A37G U44A U56A C69U C87U | ≤ -4.2
A20U A21U A52G A64U C96A U139C | ≤ -4.2
A21C A60U | -0.52
A21G C96G | 0.474
A20U A28G G58C U77C | ≤ -4.2
A21C A22U G86U U102C C116U A122G A138U | ≤ -4.2
A21U U77G U78C G84A | ≤ -4.2
A21C A24U C54G C85U A121C | -0.525
A20G A49C C54G C57U G84A U104C G136C | ≤ -4.2
A20G C87U A91U | ≤ -4.2
A20G A28C A52G C95A C96U A107C U135G G136C G152A | ≤ -4.2
A20G U45A U53A G71C C95G | ≤ -4.2
A21C A37G C93U C114G U127G A147G | ≤ -4.2
A21U A24G A37U G80C | ≤ -4.2
A21C A30C A41U A64U C103G A115C A119C G128A G133U | ≤ -4.2
A21G G25U G50U C54U A73G C93A C108G C129G U135G | ≤ -4.2
A20U C93A | -2.86
A21C A37C G84A | 0.0671
A21U C36A | -3.4
A21U A49C G58C G59C G94U U101G C129G U139G | ≤ -4.2

Variant | polymerase ribozyme fitness (log ratio)
A21C A24C G84C C85U A97U A115U G133U U148G | ≤ -4.2
A21U G68A C96U U145G | ≤ -4.2
A20G A28U G141C | ≤ -4.2
A20U A22C U82G G86U U101G C103G G143U | ≤ -4.2
A22C A28U A121U | ≤ -4.2
A21G A24G A47G G94C U102G C118U A121U | ≤ -4.2
A20G U55A G70A U78A C79G U135G | ≤ -4.2
A20G C54A G74C G86A C87U U146C | ≤ -4.2
A20U A40C C43A C96G A119C | ≤ -4.2
A20U U53A | -2.36
A21U A22U C27G C38U G59C G81A G88C C118A A147C U151G | ≤ -4.2
A21U A23G | -2.94
A20U C54A G58U G94U A119U A120G A142G | ≤ -4.2
A20U A28C G83U C87A C99G G140A | ≤ -4.2
A20U G48A G68U G83C C103G A138G G143C | ≤ -4.2
A22C A39C U53A G68A A91U U146A | ≤ -4.2
A20U G50A G86U C96G | ≤ -4.2
A20G A73C A107C C116G U134C | ≤ -4.2
A21U U104C | 0.212
A21C G34U U61A C87U U134G U135A G141C | ≤ -4.2
A21U C35U U77A C85U G92U C93G C118G A150U | ≤ -4.2
A21U C32G U55A G83U | ≤ -4.2
A20U A41C G71C G86C U130A | ≤ -4.2
